Results from paper PMC8421406, “C9orf72-derived arginine-rich poly-dipeptides impede phase modifiers” (Nature Communications, 2021).
These are yes or no findings as the source states them, for the method shown. Some entries that bind do so weakly or less than the wild type. Tags and fused reporters may be left off the sequences shown. Each block holds one binder with its values, some of them ahead of it.

By UniProt entry, the sequences of proteins in these tests, tags left out.
UniProt Q92973: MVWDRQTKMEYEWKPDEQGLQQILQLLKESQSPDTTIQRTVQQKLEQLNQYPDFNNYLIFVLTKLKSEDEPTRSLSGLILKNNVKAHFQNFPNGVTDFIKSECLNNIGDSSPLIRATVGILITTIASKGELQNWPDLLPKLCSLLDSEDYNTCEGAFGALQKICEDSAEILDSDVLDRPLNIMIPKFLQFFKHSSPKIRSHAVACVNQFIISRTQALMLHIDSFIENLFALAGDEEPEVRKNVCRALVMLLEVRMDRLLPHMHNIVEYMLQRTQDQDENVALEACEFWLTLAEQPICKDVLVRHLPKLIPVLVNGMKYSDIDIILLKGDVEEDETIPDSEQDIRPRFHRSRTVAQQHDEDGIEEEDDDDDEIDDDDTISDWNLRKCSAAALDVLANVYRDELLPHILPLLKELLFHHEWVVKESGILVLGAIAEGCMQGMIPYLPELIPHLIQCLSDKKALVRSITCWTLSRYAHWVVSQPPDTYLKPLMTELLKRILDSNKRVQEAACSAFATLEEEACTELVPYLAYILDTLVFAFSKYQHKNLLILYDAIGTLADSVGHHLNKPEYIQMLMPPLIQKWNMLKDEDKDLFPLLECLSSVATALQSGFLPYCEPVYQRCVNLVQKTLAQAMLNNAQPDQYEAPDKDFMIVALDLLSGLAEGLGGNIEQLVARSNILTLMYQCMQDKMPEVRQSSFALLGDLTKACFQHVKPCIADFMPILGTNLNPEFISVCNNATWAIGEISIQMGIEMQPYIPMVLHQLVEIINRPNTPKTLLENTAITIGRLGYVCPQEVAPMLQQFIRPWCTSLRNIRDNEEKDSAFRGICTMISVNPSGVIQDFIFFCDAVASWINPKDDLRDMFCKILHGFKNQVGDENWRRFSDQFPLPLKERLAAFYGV
UniProt Q14974: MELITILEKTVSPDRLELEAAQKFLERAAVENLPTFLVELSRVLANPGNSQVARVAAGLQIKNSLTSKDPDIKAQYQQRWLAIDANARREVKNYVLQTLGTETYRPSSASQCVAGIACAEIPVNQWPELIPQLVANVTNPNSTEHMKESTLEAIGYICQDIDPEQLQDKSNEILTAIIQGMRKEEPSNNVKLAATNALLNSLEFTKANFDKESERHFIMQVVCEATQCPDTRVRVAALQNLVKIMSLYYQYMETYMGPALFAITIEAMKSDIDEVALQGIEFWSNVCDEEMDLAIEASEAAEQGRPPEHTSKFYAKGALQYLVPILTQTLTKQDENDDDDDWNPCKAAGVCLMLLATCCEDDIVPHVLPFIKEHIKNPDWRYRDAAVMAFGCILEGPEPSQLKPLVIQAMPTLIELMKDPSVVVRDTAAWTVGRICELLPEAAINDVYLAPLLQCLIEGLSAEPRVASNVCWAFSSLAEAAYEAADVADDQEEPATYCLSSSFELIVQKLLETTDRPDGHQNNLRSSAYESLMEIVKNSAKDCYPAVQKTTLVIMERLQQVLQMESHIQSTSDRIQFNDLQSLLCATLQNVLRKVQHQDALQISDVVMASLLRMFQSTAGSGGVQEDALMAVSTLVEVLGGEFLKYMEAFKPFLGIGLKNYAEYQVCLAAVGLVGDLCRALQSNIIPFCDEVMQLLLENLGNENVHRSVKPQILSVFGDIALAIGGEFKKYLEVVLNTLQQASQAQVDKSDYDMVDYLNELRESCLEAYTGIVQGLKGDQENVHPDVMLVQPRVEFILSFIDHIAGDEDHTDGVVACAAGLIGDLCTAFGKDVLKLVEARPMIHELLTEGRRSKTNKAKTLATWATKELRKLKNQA

Assays:
karyopherin-β2 (Kapβ2) [1] = target: karyopherin-β2 (Kapβ2) (UniProt Q92973); assay: AUC; sedimentation velocity, 28 µM Kapβ2 + 28 µM MBP:PR18 and each alone; 20 mM HEPES pH 7.4, 150 mM NaCl, 2 mM MgCl2, 2 mM DTT, 10% glycerol; 25 °C; interference optics; both purified
GST:Importinβ1 [2] = target: GST:Importinβ1 (UniProt Q14974); assay: pull-down; 4 µg GST protein immobilized on 30 µL GSH sepharose beads, incubated with equal molar protein 20–30 min, washed three times; 20 mM HEPES pH 7.4, 150 mM NaCl, 10% glycerol, 2 mM Mg(OAc)2, 2 mM DTT; SDS-PAGE, Coomassie; both purified
karyopherin-β2 (Kapβ2) [3] = target: karyopherin-β2 (Kapβ2) (UniProt Q92973); assay: AUC; sedimentation velocity, Rayleigh-interference optics, 25 °C; 28 µM Kapβ2, 28 µM MBP:PR18 and their mixture; 20 mM HEPES pH 7.4, 150 mM NaCl, 2 mM MgCl2, 2 mM DTT, 10% glycerol; both purified
GST:Importinβ1 [4] = target: GST:Importinβ1 (UniProt Q14974); assay: pull-down; 4 μg GST protein immobilized on 30 μL GSH sepharose beads, incubated with equal molar protein for 20–30 min, washed three times; 20 mM HEPES pH 7.4, 150 mM NaCl, 10% glycerol, 2 mM Mg(OAc)2, 2 mM DTT; SDS-PAGE, Coomassie; both purified
GST:Kapβ2 [5] = target: GST:Kapβ2 (UniProt Q92973); assay: as above
karyopherin-β2 (Kapβ2) [6] = target: karyopherin-β2 (Kapβ2) (UniProt Q92973); assay: NMR titration; 1H-13C methyl HMQC of 20 μM isotopically labeled Kapβ2 in the absence and presence of PR20:HA; 20 °C; 20 mM 2H-Tris pH 7.4, 150 mM NaCl, 2 mM MgCl2, 2 mM DTT, 2% glycerol; both purified
GST:Kapβ2 [7] = target: GST:Kapβ2 (UniProt Q92973); assay: pull-down; competitive binding assay: GST:Kapβ2 immobilized on GSH beads, incubated with equal molar MBP:FUS-NLS ± PR20:HA for 20–30 min, washed three times; bound and unbound proteins on SDS-PAGE, Coomassie; both purified
karyopherin-β2 (Kapβ2) [8] = target: karyopherin-β2 (Kapβ2) (UniProt Q92973); assay: NMR titration; 1H-13C methyl HMQC of 20 µM isotopically labeled Kapβ2 (free or in complex with M9M) in the absence and presence of the ligand; 20 mM 2H-Tris pH 7.4, 150 mM NaCl, 2 mM MgCl2, 2 mM DTT, 2% glycerol; 20 °C; both purified

binding (karyopherin-β2 (Kapβ2) [1]): binds
binding (GST:Importinβ1 [2]): binds
B1: MBP:PR18 (maltose-binding protein fused to 18 repeats of Pro-Arg) (peptide)
chain: PRPRPRPRPRPRPRPRPRPRPRPRPRPRPRPRPRPR

binding (karyopherin-β2 (Kapβ2) [3]): binds
binding (GST:Importinβ1 [4]): binds
binding (GST:Kapβ2 [5]): binds
B2: MBP:PR18 (18 repeats of Pro-Arg) (peptide)
chain: PRPRPRPRPRPRPRPRPRPRPRPRPRPRPRPRPRPR

binding (karyopherin-β2 (Kapβ2) [6]): binds
binding (GST:Kapβ2 [7]): binds
binding (karyopherin-β2 (Kapβ2) [8]): binds
B3: PR20:HA (twenty repeats of PR with an HA epitope tag at the C terminus) (peptide)
peptide: PRPRPRPRPRPRPRPRPRPRPRPRPRPRPRPRPRPRPRPR

binding (GST:Kapβ2 [5]): no binding
B4: MBP:PR8 (8 repeats of Pro-Arg) (peptide)
chain: PRPRPRPRPRPRPRPR
